From PubChem BioAssay AID686970 (National Center for Advancing Translational Sciences (NCATS), 2013)
Among all 360,000 compounds or so, about 6,000 (1.7%) were called active. This list was built around the results that the source calls inconclusive (neither active nor inactive); the mix of calls is not that of the screen. Calls follow the shape of the dose curve; as a rule, active = well fitted cell-killing curve with a large enough effect; inconclusive = small, poorly fitted or top-dose-only effect, or effect the other way; inactive = flat fitted curve, though single readings scatter. Potencies of inconclusive entries are left out as doubtful fits.

assay: qHTS for induction of synthetic lethality in tumor cells producing 2HG: qHTS for the HT-1080-NT fibrosarcoma cell line; settings: HT-1080-NT fibrosarcoma viability, CellTiter-Glo ATP luminescence, 48 h; activity, negative = less viability: at 46.1 µM (top of the series) unless noted;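 also: NT is the 2HG producing partner of a matched IDH1 knockdown line; nearly all actives have a fitted effect of over 55% in size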;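 as to activity, negative = less viability: 0% = DMSO-treated cells and -100% = media-only wells without cells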
How it was run: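 750 cells/well, RPMI + 5% FBS; 2 h settle, compound pin-transfer, 48 h at 37 degrees C. CellTiter-Glo 10 min RT, luminescence. Normalized to DMSO and media-only wells.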
Potency is read from the fitted curve at half-maximal effect; tags tell the direction and shape of the fitted curve.

SMILES	Potency	activity, negative = less viability
O=C(Nc1cccc(C(F)(F)F)c1)N(Cc1ccc(Cl)cc1)CC(O)C(F)(F)F (configuration not stated)	active: 16.4 µM	–
O=C1C(Cc2ccc(Br)cc2)SC(=Nc2ccccc2)N1c1ccccc1 (configuration not stated)	–	inactive: -0.483%
COc1ccc(NC(=O)C2(C)CCN2Cc2ccc(OC(C)C)cc2)cc1OC (configuration not stated)	inconclusive [rising, full curve, poor fit]	–
CCCCNC(=O)C1C(c2ccc(C(F)(F)F)cc2)=Nc2ccccc2N1C(=O)c1ccc2nc(C)[nH]c2c1 (configuration not stated)	inconclusive [cytotoxic, single point]	–
COc1ccccc1NC(=O)C(C)OC(=O)CCSc1ccc(F)cc1 (configuration not stated)	–	inactive: 3.97%
OCCCNc1ncnc2c1ncn2[C@H]1CN(Cc2ccc(Cl)cc2)C[C@@H](CO)O1	–	inactive: -3.21%
CSc1nncc(/C(C)=N\Nc2ccccc2C)n1	–	inconclusive: -0.269%
O[C@H]1C[C@H](c2ccc(Cl)cc2)N(Cc2cccs2)C[C@@H]1n1cc(C2CC2)nn1	inconclusive [cytotoxic, single point]	–
C[C@H]1CN([C@@H](C)CO)C(=O)c2cc(/C=C/c3ccccc3)cnc2O[C@H]1CN(C)C(=O)c1cccc(F)c1	–	inactive: -3.39%
CCOc1cc(C=O)cc(Br)c1OCC(N)=O	–	inactive: -0.0536%
Cn1c(O)c(N=NC(=N)N)c2ccccc21	–	inactive: -1.95%
NC(=O)c1nsc(C(=O)N(c2ccc3c(c2)OCCO3)C(C(=O)NCC2CCCO2)c2ccc(F)cc2)c1N (configuration not stated)	–	inactive: 0%
CC(C)(C)NS(=O)(=O)c1ccc(C(=O)Nc2ccc3c(c2)OCO3)cc1	inconclusive [cytotoxic, full curve]	–
Cc1nnc(N2CCCC(C(=O)NCc3ccc(OC(C)C)cc3)C2)c2nn(-c3ccccc3)c(C)c12 (configuration not stated)	inconclusive [cytotoxic, single point]	–
Cc1cccc(N/N=C(\C(N)=O)C2=NC(C)(C)Cc3ccccc32)c1	inconclusive [cytotoxic, partial curve]	–
CCOC(=O)C1=C(N)Oc2cc(O)ccc2C1c1ccc([N+](=O)[O-])cc1 (configuration not stated)	inconclusive [cytotoxic, single point]	–
Cc1ccc(NC(=S)N(CCN2CCCCC2)Cc2ccco2)cc1Cl	–	inconclusive: -35.4% [cytotoxic]
C=CCn1c(SCc2ccc3c(c2)OCO3)nc2scc(-c3ccco3)c2c1=O	–	inactive: 1.16%
COc1cccc(OC)c1C(=O)Nc1cccc(-n2cnnn2)c1	–	inactive: 9.19%
CCc1cc(-c2nnn(CCC3COCCO3)c2CC)ccc1-c1cn(Cc2ccc3ccccc3c2)nn1 (configuration not stated)	–	inactive: -13.9%
Cc1nn(-c2ccccc2)c(N2CCCC2)c1/C=N/NC(=O)c1cc(-c2ccccn2)nc2ccccc12	–	inactive: -9.37%
N#CCOC(=O)C1c2ccccc2Oc2ccccc21	inconclusive [rising, single point]	–
CCOc1cc(/C=N/NC(=O)Cn2nc([N+](=O)[O-])cc2C)cc(Br)c1OCc1ccccc1F	inconclusive [cytotoxic, partial curve, poor fit]	–
COc1ccc(-c2ccc3c(c2)O/C(=C\c2ccsc2)C3=O)cn1	–	inactive: 13.3%

SMILES	Potency	activity, negative = less viability
OC[C@@H]1CN(Cc2ccc(F)cc2)C[C@H](n2cnc3c(NC4CCCC4)ncnc32)O1	inconclusive [rising, single point]	–
CC(C)c1ccc(NC(=O)C2C3C=CC(CC3)C2C(=O)O)cc1 (configuration not stated)	inconclusive [rising, partial curve]	–
CCOC(=O)CSc1c(-c2ccccc2)c2cc(Cl)ccc2[nH]c1=O	inconclusive [cytotoxic, single point]	–
COc1ccc2c(C(=O)CCl)c[nH]c2c1	inconclusive [cytotoxic, single point]	–
Cc1ccc(-c2[nH]ncc2/C=N/n2c(COc3ccccc3C)nc3ccccc3c2=O)cc1	inconclusive [cytotoxic, single point]	–
CC(C)C1CC(CCN)(Cc2ccccc2)CCO1 (configuration not stated)	inconclusive [cytotoxic, single point]	–
Cc1ccc(C(=O)N/C(=C\c2ccc(-c3cccc([N+](=O)[O-])c3)o2)C(=O)NCCCN(C)C)cc1	active: 18.4 µM	–
Cc1ccc(C)c(N(CC(=O)NC2CCCC2)C(=O)CCC(=O)Nc2cc(C)on2)c1	–	inactive: 4.41%
O=c1n(Cc2ccccc2)c(O)c2n1Cc1ccccc1N=C2c1ccc(C(F)(F)F)cc1	–	inactive: -0.271%
CC(=O)Nc1ccc(N=Nc2ccccc2)cc1[N+](=O)[O-]	inconclusive [cytotoxic, single point]	–
O=C(N/N=C1/C(=O)c2cccc3cccc1c23)c1ccc(Cl)cc1	–	inactive: 5.58%
Nc1nonc1-c1noc(CCCCCN2C(=O)c3ccccc3C2=O)n1	–	inactive: 5.64%
CSc1cccc(CN2CCN(Cc3ccc(F)c(F)c3)C(CCO)C2)c1 (configuration not stated)	–	inactive: -21.3%
Cc1ccccc1Cn1c(C)c(C(=O)NCc2cccc(Cl)c2)sc1=O	inconclusive [cytotoxic, single point]	–
Cn1c(=O)[nH]c(=O)c2c1nc(Br)n2Cc1cccc(Br)c1	active: 6.51 µM	–
COc1cc(C(=O)NC(c2ccccc2)c2ccccc2)cc(OC)c1C	–	inactive: -6.14%
O=C(CCNc1ccc(Cc2ccncc2)cc1)c1ccc([N+](=O)[O-])cc1	inconclusive [cytotoxic, single point]	–
O=C(Cn1ccc2ccccc2c1=O)NCCC(=O)N1CCN(c2cccc(C(F)(F)F)c2)CC1	–	inactive: 3.11%
CC(=O)c1ccc(NC(=O)C2CCCN(S(=O)(=O)c3c(C)[nH]c(=O)[nH]c3=O)C2)cc1 (configuration not stated)	–	inactive: 18.8%
Oc1ccccc1C(=S)N1CCN(C(=S)c2ccccc2O)CC1	–	inactive: 4.61%
COc1cnn(-c2ccccc2)c(=O)c1SCc1ccc(Cl)c(Cl)c1	inconclusive [cytotoxic, single point]	–
Cc1cc(Cl)cc(Cl)c1OCCOc1cccc2cccnc12	inconclusive [cytotoxic, single point]	–
CC(C)C(=O)Nc1ccc2oc(=O)ccc2c1	inconclusive [rising, single point]	–
